According to PubChem BioAssay AID540317 (National Center for Advancing Translational Sciences (NCATS), 2011):
Hit rate of the full screen: of about 390,000 compounds, about 2,200 (0.56%) were called active. This list was built around the results that the source calls inconclusive (neither active nor inactive); the mix of calls is not that of the screen. Calls follow the shape of the dose curve; as a rule, active = well fitted inhibition curve with a large enough effect; inconclusive = small, poorly fitted or top-dose-only effect; inactive = no such curve, though single readings can be large or run the other way. Where the call is inconclusive, the potency comes from a doubtful curve fit.
Also: nearly all actives have a fitted effect of over 70% in size.
Potency is read from the fitted curve at half-maximal effect; tags tell the direction and shape of the fitted curve.

Each compound was assayed against Chromobox protein homolog 1 (Homo sapiens) (UniProt P83916) (assay: HTS for Inhibitors of HP1-beta Chromodomain Interactions with Methylated Histone Tails). Details: AlphaScreen HP1-beta / biotin-H3K9me3 peptide binding; series mostly up to 114 µM; activity change, negative = inhibition: at the top concentration.
Sequence of UniProt P83916 (P83916 whole entry, looked up): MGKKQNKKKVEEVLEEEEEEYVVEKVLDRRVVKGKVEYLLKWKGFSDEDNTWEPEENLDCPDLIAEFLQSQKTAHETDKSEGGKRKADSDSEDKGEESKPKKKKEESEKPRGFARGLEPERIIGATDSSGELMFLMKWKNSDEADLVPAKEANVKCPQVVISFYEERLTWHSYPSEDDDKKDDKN
In short: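 AlphaScreen: HP1-beta (50 nM) preformed 30 min with biotin-H3(1-18)K9me3 peptide (50 nM) in PBS pH 7.4, 0.01% Tween-20. Compound added for 30 min at RT, then streptavidin donor/nickel chelate acceptor beads (10 ug/mL) for 30 min.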
In the case of `O=C(c1noc2c1CCCC2)N1CCc2c([nH]c3ccccc23)C1c1ccccn1` (stereo not given), the Potency is reported as inconclusive: 35.5 µM [inhibitor, partial curve, poor fit].
In the case of `Nc1ccc2nc(SCc3ccccc3F)sc2c1`, the Potency is reported as inconclusive: 50.1 µM [inhibitor, partial curve, poor fit].
With `Cc1sc(N/N=C/c2cccs2)nc1-c1ccccc1` the Potency was inconclusive: 20 µM [inhibitor, single point].
With `CCOc1ccc(Br)cc1CNc1ccc2c(c1)OCCO2` the Potency was active: 50.1 µM.
In the case of `CCN1CCN(CC(=O)N/N=C/c2cc(Br)cs2)CC1`, the Potency is reported as inconclusive: 15.8 µM [inhibitor, full curve, poor fit].
With `Cc1cc(C)cc(N2CN=c3s/c(=C\c4ccco4)c(=O)n3C2)c1` the “activity change, negative = inhibition” value was inactive: -25.4%.
`COc1ccccc1NS(=O)(=O)c1cc(N)ccc1N1CCOCC1` was tested, and the Potency was inconclusive: 39.8 µM [inhibitor, partial curve].
In the case of `COc1ccc(CCCC(=O)Nc2ccc(F)cc2)cc1`, the Potency is reported as inconclusive: 39.8 µM [inhibitor, single point].
In the case of `O=C(/N=C1\NC(=O)C(F)(C(F)(F)F)S1)NC1CCCCC1` (stereo not given), the Potency is reported as inconclusive: 20 µM [inhibitor, full curve, poor fit].
In the case of `COc1ccc([C@H]2/C=C\CN(C(=O)c3ccccc3)[C@@H](C)C(=O)N2Cc2ccc(F)cc2)cc1`, the “activity change, negative = inhibition” value is reported as inactive: 20.9%.
With `Cc1c(C#N)c2ccccc2n1CC(=O)N1CCCC1` the Potency was inconclusive: 39.8 µM [inhibitor, single point].
In the case of `COc1ccc(-n2c(=O)[nH]cc(C(=O)Nc3ccc4c(c3)OCO4)c2=O)cc1OC`, the “activity change, negative = inhibition” value is reported as inactive: 25.8%.
In the case of `COc1cc(/C=C2\SC(=O)N(CC(=O)Nc3cccc(C)c3)C2=O)cc([N+](=O)[O-])c1O`, the Potency is reported as active: 28.2 µM.
For `CCCC(=O)Nc1ccc(NCc2ccc(C)s2)cc1`, the Potency was inconclusive: 70.8 µM [inhibitor, partial curve].
For `COc1ccccc1NC(=S)NNC(=S)Nc1ccc(OC(F)F)cc1`, the Potency was inconclusive: 11.2 µM [inhibitor, partial curve, poor fit].
`C/C(=N/NC(=O)c1ccccc1O)c1ccc(N2C(=O)C3CCCCC3C2=O)cc1` (stereo not given) was tested, and the “activity change, negative = inhibition” value was inactive: 31.1%.
`O=S(=O)(c1ccccc1)c1nc(-c2ccco2)oc1N1CCCCCC1` was tested, and the Potency was active: 8.91 µM.
In the case of `CCOC(=O)C/C(C)=N\Nc1ccc([N+](=O)[O-])cc1[N+](=O)[O-]`, the Potency is reported as inconclusive: 28.2 µM [inhibitor, partial curve].
`S=c1sscc1-c1ccccc1` was tested, and the Potency was active: 20 µM.
In the case of `COc1ccccc1CNC(=O)CS(=O)(=O)c1cccc2nsnc12`, the Potency is reported as inconclusive: 7.08 µM [inhibitor, single point].
In the case of `Clc1cccc(C2Nc3cccc4cccc(c34)N2)c1Cl`, the Potency is reported as inconclusive: 35.5 µM [inhibitor, partial curve].
With `COc1ccc(NC(C(=O)Nc2cccc(C(C)=O)c2)c2ccccc2)cc1` (stereo not given) the Potency was inconclusive: 44.7 µM [inhibitor, partial curve].
In the case of `COc1cc(C(=O)NCC(c2ccc(N(C)C)cc2)N2CCc3ccccc32)cc(OC)c1OC` (stereo not given), the Potency is reported as inconclusive: 20 µM [inhibitor, full curve].
`COCCn1c(C)cc(C(=O)COC(=O)c2cc3c(s2)CCC3)c1C` was tested, and the Potency was inconclusive: 14.1 µM [inhibitor, partial curve, poor fit].
For `COC(=O)CSc1nnc(-c2ccco2)o1`, the Potency was inconclusive: 89.1 µM [inhibitor, single point].
In the case of `CC1=NN(c2ccccc2)C(=O)/C1=C/c1cccc(C)c1`, the “activity change, negative = inhibition” value is reported as inactive: -0.55% [at 57 µM].
In the case of `CCOC(=O)C1=NNC(C(=O)c2ccc(C)cc2)C1c1ccc(OC)cc1` (stereo not given), the “activity change, negative = inhibition” value is reported as inactive: 20.3%.
In the case of `CCOC(=O)c1c(C(F)(F)F)cc(-c2ccc(F)cc2)nc1C`, the “activity change, negative = inhibition” value is reported as inactive: 215%.
In the case of `C[C@@H](NCCCn1ccc(NC(=O)OCc2ccccc2)nc1=O)c1cccc2ccccc12`, the “activity change, negative = inhibition” value is reported as inactive: 13.1%.
With `S=C(NCCCc1cnc[nH]1)NCCCN(Cc1ccc(Cl)cc1)c1ccc(-c2ccccc2)cn1` the Potency was inconclusive: 50.1 µM [inhibitor, partial curve].
In the case of `CCOC(=O)C1CCCN(CC(O)COc2ccc(OC)cc2C(C)(C)C)C1` (stereo not given), the Potency is reported as active: 7.94 µM.
For `CCOC(=O)c1c(NC(=O)c2cc(CC)on2)sc(C)c1C`, the Potency was inconclusive: 12.6 µM [inhibitor, partial curve].
For `O=C(C=Cc1ccccn1)c1ccccc1O`, the “activity change, negative = inhibition” value was inactive: 2.1% [at 57 µM].
`Cc1ccc(N2CCN(c3ccc(C)cc3)C2c2cccnc2)cc1` was tested, and the Potency was inconclusive: 28.2 µM [inhibitor, partial curve].
In the case of `COc1cc(/C=N/NC(=O)c2ccncc2)ccc1OC(C)=O`, the “activity change, negative = inhibition” value is reported as inactive: 32.5%.
For `C/C(=C\c1ccccc1)CN1CCN(C)CC1`, the Potency was inconclusive: 22.4 µM [inhibitor, full curve].
`O=C(/C=C/c1ccco1)NC(=S)Nc1ccccc1O` was tested, and the Potency was inconclusive: 70.8 µM [inhibitor, partial curve].
For `O=C(Nc1ccccc1F)c1ccc2ncsc2c1`, the “activity change, negative = inhibition” value was inactive: 46.8%.
`S=C(NCc1ccc2[nH]c3c(c2c1)CCCC3)Nc1ccccc1` was tested, and the Potency was inconclusive: 25.1 µM [inhibitor, full curve].
In the case of `CCCC(c1c(C)n(C)n(-c2ccccc2)c1=O)c1c(C)n(C)n(-c2ccccc2)c1=O`, the Potency is reported as inconclusive: 7.08 µM [inhibitor, single point].
`O=C1c2cccc3c([N+](=O)[O-])ccc(c23)C(=O)N1Cc1cccnc1` was tested, and the Potency was inconclusive: 50.1 µM [inhibitor, partial curve].
`O=C(CCC(=O)N1CC2CCCN2c2ccccc21)NCc1ccccc1Cl` (stereo not given) was tested, and the Potency was inconclusive: 70.8 µM [inhibitor, partial curve, poor fit].
`FC(F)(F)c1ccc2nnc(-c3c(Cl)cccc3Cl)n2c1` was tested, and the Potency was inconclusive: 39.8 µM [inhibitor, single point].
With `CC(=O)N(Cc1ccc(F)cc1)C1=C(NCc2ccccc2)C(=O)c2ccccc2C1=O` the Potency was inconclusive: 50.1 µM [inhibitor, partial curve].
For `CN(CCO)c1cc(Sc2nc3ccccc3s2)c2nonc2c1[N+](=O)[O-]`, the Potency was inconclusive: 22.4 µM [inhibitor, full curve, poor fit].
`Cc1cnc(NC2=NCCC2)s1` was tested, and the “activity change, negative = inhibition” value was inactive: 4.82%.
`COc1ccc2nc(SCCN(C)C)[nH]c2c1` was tested, and the Potency was inconclusive: 89.1 µM [inhibitor, single point].
With `CCOC(=O)c1c(C)[nH]c(N=Nc2cccc(C)c2)c1C` the Potency was inconclusive: 28.2 µM [inhibitor, single point].
In the case of `Cc1ccnc(NC(c2ccccn2)c2c(C)[nH]c3ccccc23)c1` (stereo not given), the Potency is reported as inconclusive: 56.2 µM [inhibitor, partial curve, poor fit].
In the case of `Cn1nc(C(=O)OCC(=O)Nc2ccc(Cl)cc2Cl)c2ccccc2c1=O`, the “activity change, negative = inhibition” value is reported as inactive: 39.2%.
In the case of `O=C(O)c1ccc(COc2ccc(/C=N/NC(=O)c3cccs3)cc2)cc1`, the “activity change, negative = inhibition” value is reported as inactive: 2.5%.
In the case of `Brc1ccc(OCCN2CCOCC2)cc1`, the Potency is reported as inconclusive: 56.2 µM [inhibitor, single point].
For `O=c1[nH]c(SCCN2CCOCC2)nc(O)c1-c1ccccc1`, the Potency was inconclusive: 39.8 µM [inhibitor, single point].
In the case of `O=C(CN1CCCC1)N1CCCC(c2ccc(F)cc2)c2ccc(F)cc21` (stereo not given), the Potency is reported as inconclusive: 56.2 µM [inhibitor, partial curve, poor fit].
For `CC1=NN(c2ccccc2)C(=O)C1C=Nc1ccc(N(C)C)cc1` (stereo not given), the Potency was inconclusive: 39.8 µM [inhibitor, partial curve].
For `O=C(CCC(=O)Nc1ccc(F)cc1)N/N=C/c1ccc(O)cc1`, the Potency was inconclusive: 39.8 µM [inhibitor, single point].
For `Cc1ccc2nc3c(cc2c1)CN(Cc1ccco1)C(=NCC1CCCO1)S3` (stereo not given), the Potency was inconclusive: 31.6 µM [inhibitor, full curve].
In the case of `CCc1ccc(-n2c(CCC(=O)O)ccc2-c2cccs2)cc1`, the Potency is reported as inconclusive: 70.8 µM [inhibitor, partial curve, poor fit].
`COC(=O)c1cc2c(-c3ccccc3)cc3ccccn3c-2c1C(=O)OC` was tested, and the Potency was inconclusive: 14.1 µM [inhibitor, full curve, poor fit].
In the case of `Cc1cccc(NC(=S)NNC(=O)c2nn(C)cc2Cl)c1`, the “activity change, negative = inhibition” value is reported as inactive: 19.6%.
For `Cn1c(O)c(N=Nc2ccc(F)cc2)c2ccccc21`, the Potency was inconclusive: 89.1 µM [inhibitor, single point].
`CCOc1ccc(NC(=O)CCS(=O)(=O)c2cc3c4c(c2)CCN4C(=O)CC3)cc1` was tested, and the “activity change, negative = inhibition” value was inactive: 16.5%.
`COCC(=O)N(Cc1cc2cccc(C)c2[nH]c1=O)c1ccccc1` was tested, and the “activity change, negative = inhibition” value was inactive: 11.1%.
`O=C(Nc1nc(-c2ccc(F)c(F)c2)cs1)C1=COCCO1` was tested, and the “activity change, negative = inhibition” value was inactive: 29%.
`CS(=O)(=O)c1cc([N+](=O)[O-])c(Sc2nc3ccccc3[nH]2)c([N+](=O)[O-])c1` was tested, and the Potency was inconclusive: 44.7 µM [inhibitor, partial curve].
With `O=C(O)CCN1C(=O)/C(=C/c2cn(-c3ccccc3)nc2-c2cccs2)SC1=S` the Potency was inconclusive: 25.1 µM [inhibitor, partial curve].
For `CC(OC(=O)c1ccc(S(=O)(=O)NCc2ccco2)cc1)C(=O)Nc1ccccc1` (stereo not given), the “activity change, negative = inhibition” value was inactive: 11.2%.
In the case of `COc1ccc(C2C(C(C)=O)=C(C)N=c3s/c(=C\c4ccco4)c(=O)n32)c(OC)c1` (stereo not given), the Potency is reported as inconclusive: 31.6 µM [inhibitor, partial curve].
For `CN(C)c1ccc(C(CNC(=O)c2ccc(C(C)(C)C)cc2)N2CCCC2)cc1` (stereo not given), the Potency was inconclusive: 44.7 µM [inhibitor, partial curve].
In the case of `CCC1=C(c2ccc(C)cc2)S(=O)(=O)N=C1N1CCC(C(=O)Nc2ccccc2C(=O)OC)CC1`, the Potency is reported as inconclusive: 79.4 µM [inhibitor, single point].
